Among all 310,000 compounds or so, about 2,200 (0.71%) showed an effect of 50% or more. The effect is printed as a negative number. Some of the results follow.

The assay deals with human ether-à-go-go-related gene (hERG) potassium channel (human, UniProt Q12809). Kind of assay: primary screen, population patch clamp on CHO cells stably expressing hERG.
Chain of human ether-à-go-go-related gene (hERG) potassium channel (Q12809 whole entry, looked up): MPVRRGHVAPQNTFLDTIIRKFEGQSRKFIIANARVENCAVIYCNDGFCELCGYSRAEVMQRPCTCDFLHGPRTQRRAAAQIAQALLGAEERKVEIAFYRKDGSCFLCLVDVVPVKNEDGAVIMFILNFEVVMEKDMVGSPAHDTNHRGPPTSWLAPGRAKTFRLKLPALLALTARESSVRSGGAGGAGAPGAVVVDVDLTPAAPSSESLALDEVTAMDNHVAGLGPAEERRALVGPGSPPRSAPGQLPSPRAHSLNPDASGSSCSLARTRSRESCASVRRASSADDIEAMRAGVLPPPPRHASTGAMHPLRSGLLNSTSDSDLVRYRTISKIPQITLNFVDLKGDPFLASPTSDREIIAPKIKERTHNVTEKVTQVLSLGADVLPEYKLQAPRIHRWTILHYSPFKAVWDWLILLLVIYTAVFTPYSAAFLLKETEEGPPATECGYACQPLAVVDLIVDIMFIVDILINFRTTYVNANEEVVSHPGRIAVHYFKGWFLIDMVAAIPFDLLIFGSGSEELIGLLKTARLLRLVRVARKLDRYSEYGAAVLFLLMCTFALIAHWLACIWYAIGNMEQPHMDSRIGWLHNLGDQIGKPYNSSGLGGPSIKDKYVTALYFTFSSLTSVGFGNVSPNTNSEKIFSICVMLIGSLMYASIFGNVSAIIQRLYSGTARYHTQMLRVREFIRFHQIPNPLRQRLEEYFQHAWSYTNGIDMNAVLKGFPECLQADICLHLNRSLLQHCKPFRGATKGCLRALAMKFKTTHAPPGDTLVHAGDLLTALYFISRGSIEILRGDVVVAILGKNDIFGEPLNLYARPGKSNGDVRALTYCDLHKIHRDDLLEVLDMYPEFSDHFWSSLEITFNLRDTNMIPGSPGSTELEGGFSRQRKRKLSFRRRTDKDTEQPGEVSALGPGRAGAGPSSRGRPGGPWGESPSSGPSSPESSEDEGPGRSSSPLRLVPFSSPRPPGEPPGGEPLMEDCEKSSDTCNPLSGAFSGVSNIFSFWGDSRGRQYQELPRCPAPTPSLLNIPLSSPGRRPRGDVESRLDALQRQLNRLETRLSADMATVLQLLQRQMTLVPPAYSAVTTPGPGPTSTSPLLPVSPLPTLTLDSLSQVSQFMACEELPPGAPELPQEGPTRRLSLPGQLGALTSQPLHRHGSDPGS
With `Cn1nc(C(=O)Nc2ccccc2N2CCOCC2)ccc1=O`, the “hERG current change (%, negative = inhibition) at 1uM” value is 1.23%.

For `Cc1cc(C)nc(SCCC(=O)N2CCOCC2)n1`, the “hERG current change (%, negative = inhibition) at 1uM” value is on record as 18.6%.

In the case of `CCC(C)C(=O)Nc1nnc(SCC(=O)NC2CCCCC2)s1` (centres unmarked), the “hERG current change (%, negative = inhibition) at 1uM” value is reported as 15%.

As for `Cc1ccc(C)c(-n2nnnc2SCC(=O)Nc2cccc(-c3nnc4n3CCCCC4)c2)c1`, the “hERG current change (%, negative = inhibition) at 1uM” value is given as 10.2%.

In the case of `CCC(C)(C)C(=O)Nc1cccc(Cl)c1C`, the “hERG current change (%, negative = inhibition) at 1uM” value is recorded as 12.2%.

Regarding `COc1ccc(S(=O)(=O)Nc2ccc(CC#N)cc2)cc1`, the “hERG current change (%, negative = inhibition) at 1uM” value is reported as 16.7%.

For `c1cn(-c2ccc(-c3ccnc4ncnn34)cc2)cn1`, the “hERG current change (%, negative = inhibition) at 1uM” value amounted to 1.91%.

On to `CCCNC(=O)CCn1cc(-c2ccc(OC)cc2)nc1CCN`, for which the “hERG current change (%, negative = inhibition) at 1uM” value is 16.1%.

As to `N#C/C(=C/c1ccc(O)c(O)c1)C(=O)NCc1ccc(Cl)cc1`, the “hERG current change (%, negative = inhibition) at 1uM” value was determined as 13.4%.

As to `C[N+](C)(C)CC(=O)O.[Cl-]`, the “hERG current change (%, negative = inhibition) at 1uM” value came to 2.41%.

On to `COC(=O)CCN(c1ccccc1)S(=O)(=O)c1cc(-c2cc(C)no2)ccc1OC`, for which the “hERG current change (%, negative = inhibition) at 1uM” value was found to be 4.41%.

Regarding `Cc1ccc(NC2CCCN(C(=O)C3CCCCC3)C2)cc1C` (centres unmarked), the “hERG current change (%, negative = inhibition) at 1uM” value was 6.76%.

As for `CC(NC(=O)CN(C)Cc1ccc(Br)cc1)c1ccccc1` (centres unmarked), the “hERG current change (%, negative = inhibition) at 1uM” value turned out to be 8.27%.

Take `CCOC(=O)NC(Nc1nnc(SCC)s1)(C(F)(F)F)C(F)(F)F`: the “hERG current change (%, negative = inhibition) at 1uM” value amounted to 17%.

For `CCOc1ccc2nc(NS(=O)(=O)c3ccc(NC(C)=O)cc3)sc2c1`, the “hERG current change (%, negative = inhibition) at 1uM” value was -4.77%.

Turning to `CCc1ccccc1NC(=O)[C@@H]1CCC(=O)N1C1OC(=O)c2c1ccc(OC)c2OC` (some centres unmarked), the “hERG current change (%, negative = inhibition) at 1uM” value came out at 2.6%.

Regarding `Cc1ccc(C)c(-c2ccc(=O)n(Cc3cccc(Br)c3)n2)c1`, the “hERG current change (%, negative = inhibition) at 1uM” value came to 11.8%.

For `Cc1cc2c(c(SCC(=O)NCc3ccc(Cl)cc3)n1)C(=O)OC2`, the “hERG current change (%, negative = inhibition) at 1uM” value stood at 6.4%.

Regarding `COC(=O)c1ccc(C2C(C#N)=C(C)NC3=C2C(=O)CC(C)(C)C3)cc1` (centres unmarked), the “hERG current change (%, negative = inhibition) at 1uM” value amounted to 8.22%.

Regarding `CC(C)CCNC(=O)c1ccc(CS(=O)(=O)Cc2ccccc2F)o1`, the “hERG current change (%, negative = inhibition) at 1uM” value worked out at 2.63%.

Regarding `O=C(NN1C(=O)NC2(CCCCC2)C1=O)c1ccc(-c2ccc(Cl)cc2)o1`, the “hERG current change (%, negative = inhibition) at 1uM” value is -0.331%.

With `O=C(NNC(=O)c1n[nH]c(=O)c2ccccc12)c1ccc(Br)cc1`, the “hERG current change (%, negative = inhibition) at 1uM” value is -1.26%.

`Cc1ccc(C(=O)CSC2=C(C#N)C(c3ccco3)CC(=O)N2)c(C)c1` (centres unmarked): the “hERG current change (%, negative = inhibition) at 1uM” value was -4.12%.

Take `COc1ccc(N2C(=O)Cc3ccccc3C2=O)cc1`: the “hERG current change (%, negative = inhibition) at 1uM” value worked out at 16.3%.

Turning to `COc1ccc(Cc2nnc(NC(=O)C3CCN(C(=O)c4ccco4)CC3)s2)cc1`, the “hERG current change (%, negative = inhibition) at 1uM” value is on record as 11%.

For `Cc1ccccc1CN1C(=O)C(O)(CC(=O)c2ccncc2)c2ccccc21` (centres unmarked), the “hERG current change (%, negative = inhibition) at 1uM” value is given as 13.1%.
